This is one part of the list. At the low end of the ranking, values are background and their order means little.

This experiment concerns the target T1, GST-Rok-C97-191 (UniProt O34857).
T1 sequence: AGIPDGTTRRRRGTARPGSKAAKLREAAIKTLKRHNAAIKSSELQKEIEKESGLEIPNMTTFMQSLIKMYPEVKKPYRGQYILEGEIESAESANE
The experiment can be described thus: protein binding microarray.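 Further: rank score from −0.5 (least bound) to 0.5 (best bound).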 As to conditions: Rok is a gene silencer of Bacillus subtilis; high values mean tight binding; most listed sequences are background and not binding sites; double strand, one strand shown.
Sequence ACTCGTGG yielded a binding signal of -0.126 E-score.
The same measure for CGATATAG: 0.238 E-score; for AGAAGGTC: 0.101 E-score; for AGTTAATG: 0.203 E-score.
Then AGGTGCCG, with -0.259 E-score; and CATAGTAA, with 0.272 E-score; and AGTGGACC, with -0.00869 E-score.
In turn, AACCAGCC displayed a binding signal of -0.0305 E-score.
Then GAGTAAAC, with -0.0218 E-score; and CGACTTTC, with 0.077 E-score; and AAGAGAAT, with 0.0606 E-score.
The same measure for ATCGCATA: 0.132 E-score; for CCACATCA: -0.165 E-score.
Then CCCCCAAG, with -0.253 E-score; and CAATTTAA, with 0.0656 E-score.
In turn, AGTGCCTC yielded a binding signal of -0.187 E-score.
Then GTTACGCA, with -0.156 E-score; and AGCGGGGA, with -0.047 E-score.
As to TGCATAAA, the binding signal turned out to be 0.129 E-score.
Then CGACCAGA, with 0.0621 E-score.
The same measure for GACGATAA: 0.0437 E-score; for AAATCAGG: 0.0667 E-score.
The same measure for CGTGCTCC: -0.189 E-score; for AGTCCGGA: -0.113 E-score; for AACGGGGC: -0.174 E-score.
With ACTTCTCC, the binding signal turned out to be 0.114 E-score.
The same measure for CCGCGGTA: -0.272 E-score; for AGCATCAT: 0.053 E-score.
In the case of CGGCTGCC, the binding signal was -0.193 E-score.
Then ACCCTAAG, with -0.143 E-score; and GTATACAA, with 0.31 E-score.
Then CCCATGTA, with 0.141 E-score.
The same measure for ACAGGACG: -0.135 E-score; for GCTGCGCA: -0.124 E-score.
CCCACCAG: the binding signal was -0.304 E-score.
The same measure for AGCGCGCT: -0.0438 E-score.
In turn, GGATTTGA registered a binding signal of 0.0544 E-score.
Then ATGTCTCA, with -0.0457 E-score; and CGCACCAA, with -0.0031 E-score; and AACAGCAT, with -0.0295 E-score.
The same measure for AGCCGTCG: -0.23 E-score; for GTGCCGAA: -0.0547 E-score; for CGCTTCCG: -0.181 E-score.
Then AAGAGAGG, with -0.225 E-score; and ACTCGGGG, with -0.0876 E-score; and AATCTCGT, with 0.12 E-score.
In turn, GAAGGAGC registered a binding signal of -0.244 E-score.
The same measure for CCTCTCAC: -0.0845 E-score.
The same measure for AGGAACGG: -0.147 E-score.
TAGGACTA registered a binding signal of 0.0149 E-score.
Then TGATGTAA, with 0.0416 E-score.
The same measure for CATTTCCA: -0.0366 E-score.
As for CTGACTAC, the binding signal was determined as 0.143 E-score.
AGGCGGAG: the binding signal is -0.349 E-score.
Take CTTTGCCA: the binding signal was -0.225 E-score.
Regarding GTACTGCA, the binding signal was determined as 0.119 E-score.
The same measure for ATGTGGCG: -0.117 E-score; for AAGATCGA: 0.122 E-score.
Then TCACAAGA, with -0.206 E-score; and CAAGAGGC, with -0.149 E-score; and CGCTAACG, with 0.0204 E-score.
Turning to CGTTTGCA, the binding signal is -0.128 E-score.
With CGATAACC, the binding signal was determined as 0.00301 E-score.
As to ATCCAACG, the binding signal is -0.0195 E-score.
The same measure for CGAATGAG: -0.0259 E-score; for ACTCACAC: -0.0317 E-score.
The same measure for ACTGTACT: 0.264 E-score; for GAACGAAA: 0.0914 E-score; for AGGGTGGA: -0.247 E-score.
For TACATCCA, the binding signal is 0.247 E-score.
The same measure for CACCTGTC: -0.28 E-score.
The same measure for GCCAGTCA: -0.202 E-score.
Sequence CGCTATGC showed a binding signal of -0.0358 E-score.
Then GATGAACC, with -0.13 E-score.
Regarding AGTCTGTA, the binding signal came out at 0.128 E-score.
The same measure for GAGGGCCC: -0.371 E-score; for CCATGTTA: 0.102 E-score; for GCTACGCA: -0.104 E-score.
The same measure for GAGTTCTA: 0.134 E-score; for GCTCCTCA: -0.273 E-score; for CGCCGTAA: -0.103 E-score.
Take AGGCTCTG: the binding signal is -0.122 E-score.
The same measure for CATCGTTA: 0.0763 E-score; for ATGTGTTG: 0.106 E-score.
As for ACGATACA, the binding signal came out at 0.117 E-score.
The same measure for CCATTACA: 0.0199 E-score.
The same measure for ATGCTAAT: 0.158 E-score; for CTGAGAAC: -0.163 E-score; for ACATCCCA: -0.132 E-score.
The same measure for GTATATAA: 0.285 E-score.
With AACCAATC, the binding signal worked out at 0.22 E-score.
CGCAACAG yielded a binding signal of -0.195 E-score.
GGATGTTA showed a binding signal of 0.0716 E-score.
Then CGCTGGAC, with -0.0953 E-score; and CCAAACCG, with 0.00158 E-score; and CACGAGAC, with -0.187 E-score.
The same measure for AAGGGTAG: 0.0604 E-score.
ACGCACCG showed a binding signal of -0.0486 E-score.
Sequence CCCACGGC yielded a binding signal of -0.265 E-score.
The same measure for AGGTCAGA: -0.177 E-score.
Then CAAGGGCC, with -0.186 E-score; and CGCTGTTC, with -0.0562 E-score.
Then CCGACTGC, with -0.201 E-score.
In turn, GGCGCGAA returned a binding signal of -0.139 E-score.
Sequence CAAATTTG came in with a binding signal of 0.0571 E-score.
Then ACTCAACC, with -0.0589 E-score; and GGGGATAA, with 0.0339 E-score.
Consider GGACCTGA, for which the binding signal is -0.221 E-score.
The same measure for CGCTCAAC: -0.071 E-score.
Then AGGGAACA, with -0.135 E-score; and ACTTAGCA, with 0.123 E-score.
AACGCTTG gave a binding signal of -0.182 E-score.
CCGTCTCG had a binding signal of -0.252 E-score.
The same measure for ATCTACGC: 0.224 E-score; for CCTGCAGG: -0.213 E-score; for TCTCGTCA: -0.0851 E-score.
The same measure for ACCATAGC: -0.0609 E-score; for CCCCGCCA: -0.367 E-score; for ACCAATAA: 0.18 E-score.
ACTGACCG yielded a binding signal of 0.269 E-score.
For AATTGACT, the binding signal was found to be 0.167 E-score.
As for CGGCTAGC, the binding signal was -0.191 E-score.
AAACACTC registered a binding signal of 0.0248 E-score.
The same measure for AATCCGCA: -0.0334 E-score; for AAGAATAG: 0.118 E-score.
Then ACGAATCT, with 0.143 E-score; and AAGATTAC, with 0.132 E-score; and GGCTGTTA, with 0.0876 E-score.
In turn, TCTGCGAA returned a binding signal of -0.101 E-score.
Consider AAAATTGG, for which the binding signal stood at 0.157 E-score.
The same measure for ACACATGT: 0.0743 E-score; for CGAAGCCG: -0.361 E-score.
GCAGAGAA showed a binding signal of -0.195 E-score.
The same measure for GCCGTTAA: -0.0096 E-score; for CAAGTCCG: -0.159 E-score; for CGACCATA: 0.0423 E-score.
Then GAAAAAAC, with 0.0645 E-score; and GCCAACGA, with -0.104 E-score; and TAGCCCTA, with 0.0919 E-score.
Then GAATTAAA, with 0.168 E-score; and AGAGCTAT, with 0.278 E-score; and CTTAGTTA, with 0.189 E-score.
As to AGCTAGCC, the binding signal amounted to 0.0448 E-score.
The same measure for AGGGCATA: -0.0565 E-score.
Then AAATTAGA, with 0.262 E-score; and GAAGTGGA, with -0.00561 E-score.
The same measure for ATATGGCG: -0.0489 E-score; for AAAACGTC: -0.0674 E-score; for TAGCATAA: 0.224 E-score.
For CTTAATTC, the binding signal stood at 0.0837 E-score.
The same measure for GAATACCC: -0.0946 E-score; for AATCGTCA: -0.0288 E-score.
Then GTTACTAA, with 0.272 E-score; and GGAGACGA, with -0.102 E-score.
The same measure for CCGGAGAA: -0.0232 E-score; for GCTGATCA: 0.0182 E-score; for ATGCAGAG: -0.0691 E-score.
The sequence GACGAACA displayed a binding signal of 0.0885 E-score.
Then TATCTGGA, with 0.0371 E-score; and AGTGGGTC, with 0.0211 E-score; and AAGAGATA, with 0.282 E-score.
The same measure for CGCTGACG: -0.213 E-score; for ACGCTCCG: -0.0476 E-score.
The same measure for CATCGAGG: 0.00314 E-score; for AGGGGCCA: -0.201 E-score.
The sequence AACACAAA registered a binding signal of 0.135 E-score.
The same measure for AAGGCATT: -0.0138 E-score; for GAACATCC: -0.102 E-score; for CCTTCTCG: -0.176 E-score.
As to GGCGAGAA, the binding signal amounted to 0.0502 E-score.
ACTTGTAT displayed a binding signal of 0.216 E-score.
The same measure for CGGCAACC: -0.339 E-score.

(Values after publication PMC6212790.)
